Experimental data: patent US10344060B2 (priority 2013, dated 2019)
Read-outs that look alike come from different tables or passages of the source. At least one compound was matched to its structure with a doubt left.

Key:
Assay type in all cases: cell-based
[1] = target: hNav1.4 (Homo sapiens, UniProt P35499); conditions: read-out: PX hNav1.4 Tonic IC50
[2] = target: hNav1.7 (Homo sapiens, UniProt Q15858); conditions: read-out: PX hNav1.7 Tonic IC50
[3] = target: hNav1.5 (Homo sapiens, UniProt Q14524); conditions: PatchXpress, tonic; Table 11; read-out: PX hNav1.5 Tonic IC50
hNav1.5, sequence (Q14524 whole entry): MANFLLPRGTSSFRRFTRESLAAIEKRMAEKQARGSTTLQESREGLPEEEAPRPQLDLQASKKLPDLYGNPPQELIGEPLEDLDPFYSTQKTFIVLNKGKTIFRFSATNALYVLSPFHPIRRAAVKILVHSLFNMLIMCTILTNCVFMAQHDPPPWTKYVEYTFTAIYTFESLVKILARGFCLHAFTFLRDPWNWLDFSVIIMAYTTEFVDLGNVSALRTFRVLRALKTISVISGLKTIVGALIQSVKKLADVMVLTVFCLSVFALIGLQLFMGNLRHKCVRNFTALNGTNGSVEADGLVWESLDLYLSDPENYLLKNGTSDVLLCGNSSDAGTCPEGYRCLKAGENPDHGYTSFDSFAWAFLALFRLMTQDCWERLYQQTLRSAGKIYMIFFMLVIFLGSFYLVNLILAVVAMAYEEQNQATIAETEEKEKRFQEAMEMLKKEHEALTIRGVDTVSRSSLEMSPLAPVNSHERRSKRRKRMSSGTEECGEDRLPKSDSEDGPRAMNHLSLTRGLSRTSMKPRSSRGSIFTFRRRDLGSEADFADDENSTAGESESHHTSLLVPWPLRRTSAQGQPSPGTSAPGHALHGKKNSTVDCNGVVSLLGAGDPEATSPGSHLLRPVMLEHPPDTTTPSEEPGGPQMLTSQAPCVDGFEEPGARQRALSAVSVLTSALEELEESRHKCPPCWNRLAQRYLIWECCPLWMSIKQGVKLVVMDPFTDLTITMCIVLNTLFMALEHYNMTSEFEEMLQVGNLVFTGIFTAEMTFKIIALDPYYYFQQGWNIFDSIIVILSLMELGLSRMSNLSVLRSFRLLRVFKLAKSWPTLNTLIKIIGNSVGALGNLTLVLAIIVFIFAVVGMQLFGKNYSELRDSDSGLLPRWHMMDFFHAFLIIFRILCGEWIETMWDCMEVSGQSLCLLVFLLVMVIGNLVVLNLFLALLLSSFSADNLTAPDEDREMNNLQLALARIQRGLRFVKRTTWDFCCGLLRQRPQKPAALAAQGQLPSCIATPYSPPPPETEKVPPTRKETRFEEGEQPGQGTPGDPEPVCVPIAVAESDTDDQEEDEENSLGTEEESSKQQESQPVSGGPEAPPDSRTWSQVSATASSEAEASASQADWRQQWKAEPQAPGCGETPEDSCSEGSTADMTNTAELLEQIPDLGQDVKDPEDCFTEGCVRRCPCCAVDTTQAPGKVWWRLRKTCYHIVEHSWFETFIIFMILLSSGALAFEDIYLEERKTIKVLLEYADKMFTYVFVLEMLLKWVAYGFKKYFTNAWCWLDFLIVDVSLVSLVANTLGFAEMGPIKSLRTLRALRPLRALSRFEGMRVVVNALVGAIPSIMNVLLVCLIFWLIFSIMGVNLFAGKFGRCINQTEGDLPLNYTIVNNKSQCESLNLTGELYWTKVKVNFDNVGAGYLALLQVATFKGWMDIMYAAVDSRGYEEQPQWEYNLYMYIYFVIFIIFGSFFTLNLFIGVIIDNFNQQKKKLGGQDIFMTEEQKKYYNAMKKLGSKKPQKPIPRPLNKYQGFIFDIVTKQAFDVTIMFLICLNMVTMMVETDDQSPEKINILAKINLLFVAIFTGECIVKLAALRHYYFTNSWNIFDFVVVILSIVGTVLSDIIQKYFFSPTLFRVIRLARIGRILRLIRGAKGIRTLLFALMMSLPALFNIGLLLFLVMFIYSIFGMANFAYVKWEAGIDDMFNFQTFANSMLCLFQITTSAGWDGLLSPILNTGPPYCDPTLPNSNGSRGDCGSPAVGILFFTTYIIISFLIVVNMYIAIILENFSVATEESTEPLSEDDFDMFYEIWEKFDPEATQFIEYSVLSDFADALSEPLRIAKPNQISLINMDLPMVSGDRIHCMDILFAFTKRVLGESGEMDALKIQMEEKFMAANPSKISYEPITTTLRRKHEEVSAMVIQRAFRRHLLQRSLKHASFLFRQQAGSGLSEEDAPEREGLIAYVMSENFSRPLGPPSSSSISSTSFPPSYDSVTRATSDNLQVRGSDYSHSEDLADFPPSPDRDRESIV

hNav1.4, sequence (P35499 whole entry): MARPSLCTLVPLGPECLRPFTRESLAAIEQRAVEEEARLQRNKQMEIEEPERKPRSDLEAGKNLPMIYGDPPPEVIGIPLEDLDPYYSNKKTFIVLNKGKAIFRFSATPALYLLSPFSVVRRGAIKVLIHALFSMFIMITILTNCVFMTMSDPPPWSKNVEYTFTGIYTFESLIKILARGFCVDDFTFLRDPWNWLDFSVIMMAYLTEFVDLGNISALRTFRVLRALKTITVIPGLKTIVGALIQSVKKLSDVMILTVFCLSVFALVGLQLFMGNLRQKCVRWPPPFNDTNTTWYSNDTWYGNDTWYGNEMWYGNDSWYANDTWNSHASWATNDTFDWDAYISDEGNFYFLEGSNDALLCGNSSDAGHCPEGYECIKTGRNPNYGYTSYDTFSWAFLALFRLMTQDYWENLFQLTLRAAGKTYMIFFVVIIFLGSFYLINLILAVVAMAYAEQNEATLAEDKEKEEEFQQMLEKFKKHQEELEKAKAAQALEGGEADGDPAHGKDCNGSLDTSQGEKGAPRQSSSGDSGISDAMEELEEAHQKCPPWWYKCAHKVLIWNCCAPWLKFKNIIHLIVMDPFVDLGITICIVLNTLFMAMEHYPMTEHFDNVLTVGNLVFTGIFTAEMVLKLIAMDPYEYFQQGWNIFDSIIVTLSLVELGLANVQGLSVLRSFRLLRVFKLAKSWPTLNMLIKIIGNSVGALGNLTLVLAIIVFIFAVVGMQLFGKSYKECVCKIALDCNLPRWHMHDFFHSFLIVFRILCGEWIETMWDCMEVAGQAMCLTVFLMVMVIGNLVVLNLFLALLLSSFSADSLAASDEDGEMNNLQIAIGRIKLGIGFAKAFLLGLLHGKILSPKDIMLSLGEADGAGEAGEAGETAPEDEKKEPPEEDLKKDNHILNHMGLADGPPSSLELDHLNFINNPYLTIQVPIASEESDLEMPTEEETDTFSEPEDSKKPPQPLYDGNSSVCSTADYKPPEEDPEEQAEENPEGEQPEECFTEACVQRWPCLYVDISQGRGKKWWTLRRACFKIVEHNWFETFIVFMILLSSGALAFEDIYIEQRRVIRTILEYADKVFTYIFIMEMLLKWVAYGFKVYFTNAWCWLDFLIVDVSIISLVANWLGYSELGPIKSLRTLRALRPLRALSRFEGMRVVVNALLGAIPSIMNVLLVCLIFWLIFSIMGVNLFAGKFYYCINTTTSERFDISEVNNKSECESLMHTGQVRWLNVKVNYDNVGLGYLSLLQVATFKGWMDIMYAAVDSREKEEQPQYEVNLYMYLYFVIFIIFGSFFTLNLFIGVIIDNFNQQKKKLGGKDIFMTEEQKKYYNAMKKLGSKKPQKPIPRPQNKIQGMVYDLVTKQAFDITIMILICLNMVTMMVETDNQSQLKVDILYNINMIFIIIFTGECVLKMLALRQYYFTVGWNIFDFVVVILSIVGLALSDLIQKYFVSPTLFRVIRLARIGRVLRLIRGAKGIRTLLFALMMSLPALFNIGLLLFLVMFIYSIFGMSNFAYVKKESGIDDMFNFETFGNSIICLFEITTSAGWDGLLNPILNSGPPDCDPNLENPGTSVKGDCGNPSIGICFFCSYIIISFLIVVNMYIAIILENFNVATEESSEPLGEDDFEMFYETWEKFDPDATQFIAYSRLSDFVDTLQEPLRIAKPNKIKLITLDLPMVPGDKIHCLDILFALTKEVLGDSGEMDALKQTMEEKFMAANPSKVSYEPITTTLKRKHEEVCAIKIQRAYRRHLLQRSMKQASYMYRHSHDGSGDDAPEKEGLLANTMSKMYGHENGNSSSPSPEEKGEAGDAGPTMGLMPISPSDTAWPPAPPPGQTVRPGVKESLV

| SMILES | IC50 ([1]; PatchXpress, tonic, Table 11) [nM] | IC50 ([2]; PatchXpress, tonic, Table 11) [nM] | IC50 [3] [nM] | IC50 [1] [nM] | IC50 [2] [nM] |
| --- | --- | --- | --- | --- | --- |
| CCCC[C@@H]1NC(=O)[C@H](Cc2c[nH]c3ccccc23)NC(=O)[C@H](CCCCN)NC(=O)[C@H](CCC(N)=O)NC(=O)[C@@H](NC(=O)[C@H](Cc2ccc(O)cc2)NC(=O)[C@@H](N)CC#N)CSSC[C@@H]2NC(=O)[C@@H]3CSSC[C@@H](C(=O)N[C@@H](CCCNC(=N)N)C(=O)N[C@@H](CCCCN)C(=O)N[C@@H](CCC(=O)O)C(=O)N[C@H](C(N)=O)[C@@H](C)CC)NC(=O)[C@H](Cc4c[nH]c5ccccc45)NC(=O)[C@H](CC(C)C)NC(=O)[C@H](CCCCN)NC(=O)[C@H](CSSC[C@H](NC(=O)[C@H]([C@@H](C)O)NC(=O)[C@H](Cc4c[nH]c5ccccc45)NC1=O)C(=O)N[C@@H](CC(=O)O)C(=O)N[C@@H](CO)C(=O)N[C@@H](CCCCN)C(=O)N[C@@H](CCCNC(=N)N)C(=O)N[C@@H](CCCCNC(=O)CCOCCOCCOCCOCCOCCOCCOCCOCCOCCOCCOCCOCCN)C(=O)N3)NC(=O)[C@H](CCCNC(=N)N)NC(=O)[C@H](CC(C)C)NC(=O)CNC(=O)[C@H](CCC(=O)O)NC2=O [compound 455] | 545 | 6.35 | 6990 | – | – |
| CCCC[C@@H]1NC(=O)[C@H](Cc2c[nH]c3ccccc23)NC(=O)[C@H](CCCCN)NC(=O)[C@H](CCC(N)=O)NC(=O)[C@@H](NC(=O)[C@H](Cc2ccc(O)cc2)NC(=O)[C@@H](N)CC#N)CSSC[C@@H]2NC(=O)[C@@H]3CSSC[C@@H](C(=O)N[C@@H](CCCNC(=N)N)C(=O)N[C@@H](CCCCN)C(=O)N[C@@H](CCC(=O)O)C(=O)N[C@H](C(N)=O)[C@@H](C)CC)NC(=O)[C@H](Cc4c[nH]c5ccccc45)NC(=O)[C@H](CC(C)C)NC(=O)[C@H](CCCCN)NC(=O)[C@H](CSSC[C@H](NC(=O)[C@H]([C@@H](C)O)NC(=O)[C@H](Cc4c[nH]c5ccccc45)NC1=O)C(=O)N[C@@H](CC(=O)O)C(=O)N[C@@H](CO)C(=O)N[C@@H](CCCCN)C(=O)N[C@@H](CCCNC(=N)N)C(=O)N[C@@H](C)C(=O)N3)NC(=O)[C@H](CCCNC(=N)N)NC(=O)[C@H](CC(C)C)NC(=O)CNC(=O)[C@H](CCCCNC(=O)CCOCCOCCOCCOCCOCCOCCOCCOCCOCCOCCOCCOCCN)NC2=O [compound 456] | 327 | 4.83 | 4670 | – | – |
| CCCC[C@@H]1NC(=O)[C@H](Cc2c[nH]c3ccccc23)NC(=O)[C@H](CCCCN)NC(=O)[C@H](CCC(N)=O)NC(=O)[C@@H](NC(=O)[C@H](Cc2ccc(O)cc2)NC(=O)[C@@H](N)CCCCNC(=O)CCOCCOCCOCCOCCOCCOCCOCCOCCOCCOCCOCCOCCN)CSSC[C@@H]2NC(=O)[C@@H]3CSSC[C@@H](C(=O)N[C@@H](CCCNC(=N)N)C(=O)N[C@@H](CCCCN)C(=O)N[C@@H](CCC(=O)O)C(=O)N[C@H](C(N)=O)[C@@H](C)CC)NC(=O)[C@H](Cc4c[nH]c5ccccc45)NC(=O)[C@H](CC(C)C)NC(=O)[C@H](CCCCN)NC(=O)[C@H](CSSC[C@H](NC(=O)[C@H]([C@@H](C)O)NC(=O)[C@H](Cc4c[nH]c5ccccc45)NC1=O)C(=O)N[C@@H](CC(=O)O)C(=O)N[C@@H](CO)C(=O)N[C@@H](CCCCN)C(=O)N[C@@H](CCCNC(=N)N)C(=O)N[C@@H](C)C(=O)N3)NC(=O)[C@H](CCCNC(=N)N)NC(=O)[C@H](CC(C)C)NC(=O)CNC(=O)[C@H](CCC(=O)O)NC2=O [compound 457] | > 10000 | > 1000 | > 10000 | – | – |
| CCCC[C@@H]1NC(=O)[C@@H]2CSSC[C@@H]3NC(=O)[C@H]([C@@H](C)O)NC(=O)[C@H](Cc4c[nH]c5ccccc45)NC(=O)[C@H](CCCC)NC(=O)[C@H](Cc4c[nH]c5ccccc45)NC(=O)[C@H](CCCCN)NC(=O)[C@H](CCC(N)=O)NC(=O)[C@@H](NC(=O)[C@H](Cc4ccc(O)cc4)NC(=O)[C@@H](N)CC#N)CSSC[C@H](NC(=O)[C@H](CSSC[C@@H](C(=O)N[C@@H](CCCNC(=N)N)C(=O)N[C@@H](CCCCN)C(=O)N[C@@H](CCC(=O)O)C(=O)N[C@H](C(N)=O)[C@@H](C)CC)NC(=O)[C@H](Cc4c[nH]c5ccccc45)NC(=O)[C@H](CC(C)C)NC1=O)NC(=O)[C@H](C)NC(=O)[C@H](CCCNC(=N)N)NC(=O)[C@H](CCCCN)NC(=O)[C@H](CO)NC(=O)[C@H](CC(=O)O)NC3=O)C(=O)N[C@@H](CCCCNC(=O)CCOCCOCCOCCOCCOCCOCCOCCOCCOCCOCCOCCOCCN)C(=O)NCC(=O)N[C@@H](CC(C)C)C(=O)N[C@@H](CCCNC(=N)N)C(=O)N2 [compound 555] | 7260 | > 1000 | – | – | – |
| CCCC[C@@H]1NC(=O)[C@H](CO)NC(=O)[C@H](CC(=O)O)NC(=O)[C@@H]2CSSC[C@@H]3NC(=O)[C@H](CCCNC(=N)N)NC(=O)[C@H](CC(C)C)NC(=O)CNC(=O)[C@H](CCCCNC(=O)CCOCCOCCOCCOCCOCCOCCOCCOCCOCCOCCOCCOCCN)NC(=O)[C@H](CSSC[C@H](NC(=O)[C@H](Cc4ccc(O)cc4)NC(=O)[C@@H](N)CC#N)C(=O)N[C@@H](CCC(N)=O)C(=O)N[C@@H](CCCCN)C(=O)N[C@@H](Cc4c[nH]c5ccccc45)C(=O)N[C@@H](CCCC)C(=O)N[C@@H](Cc4c[nH]c5ccccc45)C(=O)N[C@@H]([C@@H](C)O)C(=O)N2)NC(=O)[C@H](CSSC[C@@H](C(=O)N[C@@H](CCCNC(=N)N)C(=O)N[C@@H](CCCCN)C(=O)N[C@@H](CCC(=O)O)C(=O)N[C@H](C(N)=O)[C@@H](C)CC)NC(=O)[C@H](Cc2c[nH]c4ccccc24)NC(=O)[C@H](CC(C)C)NC(=O)[C@H](CCCCN)NC3=O)NC(=O)[C@H](C)NC(=O)[C@H](CCCNC(=N)N)NC1=O [compound 561] | 370 | 11.3 | – | – | – |
| CCCC[C@@H]1NC(=O)[C@H](Cc2c[nH]c3ccccc23)NC(=O)[C@H](CCCCN)NC(=O)[C@H](CCC(N)=O)NC(=O)[C@@H](NC(=O)[C@H](CCCCNC(=O)CCOCCOCCOCCOCCOCCOCCOCCOCCOCCOCCOCCOCCN)NC(=O)[C@@H](N)CC#N)CSSC[C@@H]2NC(=O)[C@@H]3CSSC[C@@H](C(=O)N[C@@H](CCCNC(=N)N)C(=O)N[C@@H](CCCCN)C(=O)N[C@@H](CCC(=O)O)C(=O)N[C@H](C(N)=O)[C@@H](C)CC)NC(=O)[C@H](Cc4c[nH]c5ccccc45)NC(=O)[C@H](CC(C)C)NC(=O)[C@H](CCCCN)NC(=O)[C@H](CSSC[C@H](NC(=O)[C@H]([C@@H](C)O)NC(=O)[C@H](Cc4c[nH]c5ccccc45)NC1=O)C(=O)N[C@@H](CC(=O)O)C(=O)N[C@@H](CO)C(=O)N[C@@H](CCCCN)C(=O)N[C@@H](CCCNC(=N)N)C(=O)N[C@@H](C)C(=O)N3)NC(=O)[C@H](CCCNC(=N)N)NC(=O)[C@H](CC(C)C)NC(=O)CNC(=O)[C@H](CCC(=O)O)NC2=O [compound 563] | 682 | 5.4 | – | – | – |
| CCCC[C@@H]1NC(=O)[C@H](Cc2c[nH]c3ccccc23)NC(=O)[C@H](CCCCN)NC(=O)[C@H](CCC(N)=O)NC(=O)[C@@H](NC(=O)[C@H](Cc2ccc(O)cc2)NC(=O)[C@@H](N)CC#N)CSSC[C@@H]2NC(=O)[C@@H]3CSSC[C@@H](C(=O)N[C@@H](CCCNC(=N)N)C(=O)N[C@@H](CCCCN)C(=O)N[C@@H](CCC(=O)O)C(=O)N[C@H](C(N)=O)[C@@H](C)CC)NC(=O)[C@H](Cc4c[nH]c5ccccc45)NC(=O)[C@H](CC(C)C)NC(=O)[C@H](CCCCN)NC(=O)[C@H](CSSC[C@H](NC(=O)[C@H]([C@@H](C)O)NC(=O)[C@H](Cc4c[nH]c5ccccc45)NC1=O)C(=O)N[C@@H](CC(=O)O)C(=O)N[C@@H](CCCCNC(=O)CCOCCOCCOCCOCCOCCOCCOCCOCCOCCOCCOCCOCCN)C(=O)N[C@@H](CCCCN)C(=O)N[C@@H](CCCNC(=N)N)C(=O)N[C@@H](C)C(=O)N3)NC(=O)[C@H](CCCNC(=N)N)NC(=O)[C@H](CC(C)C)NC(=O)CNC(=O)[C@H](CCC(=O)O)NC2=O [compound 565] | 751 | 10 | – | – | – |
| CCCC[C@@H]1NC(=O)[C@H](Cc2c[nH]c3ccccc23)NC(=O)[C@H](CCCCN)NC(=O)[C@H](CCC(N)=O)NC(=O)[C@@H](NC(=O)[C@H](Cc2ccc(O)cc2)NC(=O)[C@@H](N)CC#N)CSSC[C@@H]2NC(=O)[C@@H]3CSSC[C@@H](C(=O)N[C@@H](CCCNC(=N)N)C(=O)N[C@@H](CCCCN)C(=O)N[C@@H](CCC(=O)O)C(=O)N[C@H](C(N)=O)[C@@H](C)CC)NC(=O)[C@H](Cc4c[nH]c5ccccc45)NC(=O)[C@H](CC(C)C)NC(=O)[C@H](CCCCN)NC(=O)[C@H](CSSC[C@H](NC(=O)[C@H]([C@@H](C)O)NC(=O)[C@H](Cc4c[nH]c5ccccc45)NC1=O)C(=O)N[C@@H](CC(=O)O)C(=O)N[C@@H](CO)C(=O)N[C@@H](CCCCNC(=O)CCOCCOCCOCCOCCOCCOCCOCCOCCOCCOCCOCCOCCN)C(=O)N[C@@H](CCCNC(=N)N)C(=O)N[C@@H](C)C(=O)N3)NC(=O)[C@H](CCCNC(=N)N)NC(=O)[C@H](CC(C)C)NC(=O)CNC(=O)[C@H](CCC(=O)O)NC2=O [compound 566] | 719 | 7.02 | – | – | – |
| CCCC[C@@H]1NC(=O)[C@H](Cc2c[nH]c3ccccc23)NC(=O)[C@H](CCCCN)NC(=O)[C@H](CCC(N)=O)NC(=O)[C@@H](NC(=O)[C@H](Cc2ccc(O)cc2)NC(=O)[C@@H](N)Cc2cn(CCOCCOCCOCCOCCOCCOCCOCCOCCOCCOCCN)nn2)CSSC[C@@H]2NC(=O)[C@@H]3CSSC[C@@H](C(=O)N[C@@H](CCCNC(=N)N)C(=O)N[C@@H](CCCCN)C(=O)N[C@@H](CCC(=O)O)C(=O)N[C@H](C(N)=O)[C@@H](C)CC)NC(=O)[C@H](Cc4c[nH]c5ccccc45)NC(=O)[C@H](CC(C)C)NC(=O)[C@H](CCCCN)NC(=O)[C@H](CSSC[C@H](NC(=O)[C@H]([C@@H](C)O)NC(=O)[C@H](Cc4c[nH]c5ccccc45)NC1=O)C(=O)N[C@@H](CC(=O)O)C(=O)N[C@@H](CO)C(=O)N[C@@H](CCCCN)C(=O)N[C@@H](CCCNC(=N)N)C(=O)N[C@@H](C)C(=O)N3)NC(=O)[C@H](CCCNC(=N)N)NC(=O)[C@H](CC(C)C)NC(=O)CNC(=O)[C@H](CCC(=O)O)NC2=O [compound 883] | – | – | – | 371 | 3.08 |
